Like-named read-outs stand apart in the source and are kept apart here. These are yes or no findings as the source states them, for the method shown. In cells and extracts the contact can be indirect. Some entries that bind do so weakly or less than the wild type. For some assays here: Tags and fused reporters may be left off the sequences shown.

Chains of the proteins cited; added tags and fusions are not shown.
UniProt P60953: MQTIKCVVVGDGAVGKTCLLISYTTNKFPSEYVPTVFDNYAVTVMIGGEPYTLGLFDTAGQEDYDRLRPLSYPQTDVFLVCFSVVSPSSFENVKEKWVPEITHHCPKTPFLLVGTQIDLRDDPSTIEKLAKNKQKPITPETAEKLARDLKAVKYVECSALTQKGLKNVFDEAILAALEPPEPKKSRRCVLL
UniProt P49815: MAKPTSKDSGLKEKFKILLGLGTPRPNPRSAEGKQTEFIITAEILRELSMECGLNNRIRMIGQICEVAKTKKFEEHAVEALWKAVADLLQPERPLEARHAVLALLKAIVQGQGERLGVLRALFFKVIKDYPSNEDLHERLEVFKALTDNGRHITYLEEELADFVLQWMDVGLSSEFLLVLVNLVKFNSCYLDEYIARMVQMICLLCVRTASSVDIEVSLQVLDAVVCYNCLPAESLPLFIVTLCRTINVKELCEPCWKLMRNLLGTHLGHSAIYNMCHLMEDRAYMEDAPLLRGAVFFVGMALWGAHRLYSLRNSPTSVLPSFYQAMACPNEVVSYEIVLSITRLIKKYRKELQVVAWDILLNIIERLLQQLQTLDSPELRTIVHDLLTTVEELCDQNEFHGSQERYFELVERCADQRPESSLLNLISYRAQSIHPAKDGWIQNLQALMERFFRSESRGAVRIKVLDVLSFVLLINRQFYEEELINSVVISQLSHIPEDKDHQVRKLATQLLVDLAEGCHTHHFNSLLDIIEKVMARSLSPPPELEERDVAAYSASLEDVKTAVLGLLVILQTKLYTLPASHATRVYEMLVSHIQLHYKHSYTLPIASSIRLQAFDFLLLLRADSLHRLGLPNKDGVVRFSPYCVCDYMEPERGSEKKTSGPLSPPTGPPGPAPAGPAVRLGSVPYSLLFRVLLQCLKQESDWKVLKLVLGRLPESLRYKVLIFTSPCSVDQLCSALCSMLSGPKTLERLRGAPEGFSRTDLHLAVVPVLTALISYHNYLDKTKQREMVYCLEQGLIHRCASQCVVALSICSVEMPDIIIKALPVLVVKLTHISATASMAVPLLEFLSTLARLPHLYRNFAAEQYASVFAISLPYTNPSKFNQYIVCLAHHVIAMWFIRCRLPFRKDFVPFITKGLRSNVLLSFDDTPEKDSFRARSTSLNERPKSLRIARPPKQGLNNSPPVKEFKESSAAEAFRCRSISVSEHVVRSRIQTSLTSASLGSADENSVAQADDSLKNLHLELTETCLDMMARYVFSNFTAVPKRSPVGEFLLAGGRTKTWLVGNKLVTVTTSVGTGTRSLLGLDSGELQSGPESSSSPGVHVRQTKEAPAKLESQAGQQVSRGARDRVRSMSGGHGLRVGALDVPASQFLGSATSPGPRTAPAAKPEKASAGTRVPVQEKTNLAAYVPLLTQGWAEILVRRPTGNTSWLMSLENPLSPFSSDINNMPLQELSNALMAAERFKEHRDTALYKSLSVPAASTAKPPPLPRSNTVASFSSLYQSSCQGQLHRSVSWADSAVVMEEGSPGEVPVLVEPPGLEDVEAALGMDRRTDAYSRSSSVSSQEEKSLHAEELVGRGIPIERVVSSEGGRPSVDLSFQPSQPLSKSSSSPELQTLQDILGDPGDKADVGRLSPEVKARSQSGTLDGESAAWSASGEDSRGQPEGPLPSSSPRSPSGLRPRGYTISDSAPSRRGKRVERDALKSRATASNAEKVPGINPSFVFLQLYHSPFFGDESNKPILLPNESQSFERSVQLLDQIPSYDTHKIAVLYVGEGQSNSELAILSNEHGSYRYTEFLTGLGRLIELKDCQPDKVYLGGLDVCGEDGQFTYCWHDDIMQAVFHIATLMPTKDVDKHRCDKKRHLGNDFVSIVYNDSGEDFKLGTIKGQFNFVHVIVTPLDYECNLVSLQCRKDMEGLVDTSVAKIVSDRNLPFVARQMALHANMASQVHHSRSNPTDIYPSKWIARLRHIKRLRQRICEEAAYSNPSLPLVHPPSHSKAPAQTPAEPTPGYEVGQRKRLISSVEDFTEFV
UniProt Q6R327: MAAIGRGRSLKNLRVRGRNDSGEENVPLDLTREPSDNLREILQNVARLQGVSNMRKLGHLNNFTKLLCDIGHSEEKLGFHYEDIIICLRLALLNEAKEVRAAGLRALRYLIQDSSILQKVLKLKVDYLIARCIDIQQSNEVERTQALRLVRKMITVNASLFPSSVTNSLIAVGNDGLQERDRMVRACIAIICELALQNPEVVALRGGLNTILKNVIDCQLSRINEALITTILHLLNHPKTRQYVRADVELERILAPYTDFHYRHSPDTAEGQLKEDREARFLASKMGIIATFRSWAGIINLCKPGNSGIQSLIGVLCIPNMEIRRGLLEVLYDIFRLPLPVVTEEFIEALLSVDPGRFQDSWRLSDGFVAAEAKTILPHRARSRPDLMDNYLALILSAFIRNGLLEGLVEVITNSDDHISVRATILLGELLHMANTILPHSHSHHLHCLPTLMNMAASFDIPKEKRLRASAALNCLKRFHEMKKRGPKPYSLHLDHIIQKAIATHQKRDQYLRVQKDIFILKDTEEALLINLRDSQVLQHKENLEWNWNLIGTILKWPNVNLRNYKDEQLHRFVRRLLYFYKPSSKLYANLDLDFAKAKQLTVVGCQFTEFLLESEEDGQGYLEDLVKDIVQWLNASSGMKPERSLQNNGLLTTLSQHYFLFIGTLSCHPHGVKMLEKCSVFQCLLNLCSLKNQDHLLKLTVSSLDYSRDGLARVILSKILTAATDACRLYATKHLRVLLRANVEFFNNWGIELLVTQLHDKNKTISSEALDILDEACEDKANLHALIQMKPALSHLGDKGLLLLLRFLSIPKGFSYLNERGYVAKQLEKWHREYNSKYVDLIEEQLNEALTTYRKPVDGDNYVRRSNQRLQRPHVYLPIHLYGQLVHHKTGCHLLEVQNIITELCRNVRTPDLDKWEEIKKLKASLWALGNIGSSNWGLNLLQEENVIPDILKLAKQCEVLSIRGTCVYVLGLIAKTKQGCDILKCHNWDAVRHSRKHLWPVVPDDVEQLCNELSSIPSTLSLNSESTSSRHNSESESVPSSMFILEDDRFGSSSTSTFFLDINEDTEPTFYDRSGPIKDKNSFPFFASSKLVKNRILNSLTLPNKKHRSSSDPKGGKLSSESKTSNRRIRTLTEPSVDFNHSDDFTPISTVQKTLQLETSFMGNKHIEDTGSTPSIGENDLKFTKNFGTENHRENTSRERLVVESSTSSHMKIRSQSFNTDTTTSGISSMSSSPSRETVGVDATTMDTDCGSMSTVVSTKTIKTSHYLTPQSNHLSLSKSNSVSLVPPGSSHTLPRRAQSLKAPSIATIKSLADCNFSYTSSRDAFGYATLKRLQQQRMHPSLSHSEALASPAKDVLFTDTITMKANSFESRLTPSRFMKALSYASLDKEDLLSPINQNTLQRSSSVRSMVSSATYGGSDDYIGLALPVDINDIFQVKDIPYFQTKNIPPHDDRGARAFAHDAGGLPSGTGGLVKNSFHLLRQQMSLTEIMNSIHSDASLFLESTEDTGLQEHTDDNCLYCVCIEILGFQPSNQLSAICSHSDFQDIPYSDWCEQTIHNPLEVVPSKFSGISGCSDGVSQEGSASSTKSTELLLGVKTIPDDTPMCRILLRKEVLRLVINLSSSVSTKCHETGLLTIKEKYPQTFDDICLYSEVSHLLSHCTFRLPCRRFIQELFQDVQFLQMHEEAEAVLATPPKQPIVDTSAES

Results on 4 molecules are retold here after publication doi:10.1101/2023.01.03.522657.

The target in experiment [1] is endogenous Cdc42 (human (endogenous in MDA-MB-231)) (UniProt P60953). As to the kind of experiment: proximity ligation; Duolink PLA between the V5 tag of an overexpressed Dock7 construct and an endogenous partner in fixed, serum-starved MDA-MB-231 cells (limit domains: after Dock7 knockdown).
The target in a further experiment is Flag-tagged TSC2 (UniProt P49815). As to the kind of experiment: co-IP; HEK-293T lysates (50 mM Hepes pH 8.0, 150 mM NaCl, 0.3% CHAPS); anti-Myc, HA, Flag or V5 antibody 2 h, then BSA-coated Protein G beads 1 h at 4°C; Western blot.
The target in a further experiment is T1, Myc-tagged TSC1 (UniProt Q92574).
T1 sequence: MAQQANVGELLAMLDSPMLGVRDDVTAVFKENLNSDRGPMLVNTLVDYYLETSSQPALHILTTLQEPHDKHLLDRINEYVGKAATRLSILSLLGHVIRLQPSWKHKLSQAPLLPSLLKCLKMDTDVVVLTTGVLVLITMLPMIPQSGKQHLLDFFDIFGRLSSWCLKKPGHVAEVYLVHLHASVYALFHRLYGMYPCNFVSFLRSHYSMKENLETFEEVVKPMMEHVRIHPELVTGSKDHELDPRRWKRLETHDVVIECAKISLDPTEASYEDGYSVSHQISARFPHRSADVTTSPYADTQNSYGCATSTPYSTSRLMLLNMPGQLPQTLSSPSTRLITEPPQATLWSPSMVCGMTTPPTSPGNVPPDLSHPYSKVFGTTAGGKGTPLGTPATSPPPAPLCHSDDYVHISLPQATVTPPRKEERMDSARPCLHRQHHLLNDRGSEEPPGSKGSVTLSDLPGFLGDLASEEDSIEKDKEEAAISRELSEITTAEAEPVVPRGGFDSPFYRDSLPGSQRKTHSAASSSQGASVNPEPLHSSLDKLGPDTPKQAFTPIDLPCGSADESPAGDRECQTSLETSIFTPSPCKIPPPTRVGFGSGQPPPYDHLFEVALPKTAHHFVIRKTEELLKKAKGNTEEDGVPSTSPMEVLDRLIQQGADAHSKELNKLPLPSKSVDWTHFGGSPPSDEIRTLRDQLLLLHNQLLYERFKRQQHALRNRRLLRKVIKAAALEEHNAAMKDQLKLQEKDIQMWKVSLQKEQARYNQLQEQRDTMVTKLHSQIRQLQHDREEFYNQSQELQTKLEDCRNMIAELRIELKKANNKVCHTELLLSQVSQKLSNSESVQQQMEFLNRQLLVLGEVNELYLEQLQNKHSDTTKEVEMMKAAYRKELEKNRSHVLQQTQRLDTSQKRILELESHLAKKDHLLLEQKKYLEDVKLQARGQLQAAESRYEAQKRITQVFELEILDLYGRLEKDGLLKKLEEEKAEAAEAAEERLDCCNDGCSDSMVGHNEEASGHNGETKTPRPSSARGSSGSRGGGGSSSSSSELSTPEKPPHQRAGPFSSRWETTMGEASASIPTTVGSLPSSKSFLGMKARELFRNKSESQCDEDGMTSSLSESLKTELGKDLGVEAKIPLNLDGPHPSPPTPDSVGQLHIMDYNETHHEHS
The experiment is described as above.

Experiment [2] has as its target T2, V5-tagged DHR2 limit domain of Dock7 (human (cDNA from HeLa cells)) (UniProt Q96N67).
T2 sequence: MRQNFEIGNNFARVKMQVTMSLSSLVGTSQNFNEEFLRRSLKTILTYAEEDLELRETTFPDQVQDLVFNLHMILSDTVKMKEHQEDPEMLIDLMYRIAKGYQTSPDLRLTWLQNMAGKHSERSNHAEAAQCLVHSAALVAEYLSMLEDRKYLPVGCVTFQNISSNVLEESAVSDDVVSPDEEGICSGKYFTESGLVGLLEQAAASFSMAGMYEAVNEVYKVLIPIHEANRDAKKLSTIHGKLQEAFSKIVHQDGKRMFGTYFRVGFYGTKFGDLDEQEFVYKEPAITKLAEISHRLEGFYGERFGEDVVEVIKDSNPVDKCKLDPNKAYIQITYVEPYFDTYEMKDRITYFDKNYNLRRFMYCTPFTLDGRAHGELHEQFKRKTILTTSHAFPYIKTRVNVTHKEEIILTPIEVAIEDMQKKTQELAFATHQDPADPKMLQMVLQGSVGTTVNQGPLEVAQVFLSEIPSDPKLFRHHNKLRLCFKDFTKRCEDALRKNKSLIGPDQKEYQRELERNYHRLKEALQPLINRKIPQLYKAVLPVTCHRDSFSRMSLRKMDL
The description is as above.

The target of experiment [3] is endogenous Cdc42 (human (endogenous in MDA-MB-231)) (UniProt P60953). As to the kind of experiment: proximity ligation; Duolink PLA between two endogenous proteins in fixed MDA-MB-231 cells, in complete media or serum-starved 18–24 h; in some panels after Dock7 knockdown and overexpression of Dock7 constructs.
Experiment [4] concerns the target T3, endogenous LAMP1 (human (endogenous in MDA-MB-231)) (UniProt P11279).
T3 sequence: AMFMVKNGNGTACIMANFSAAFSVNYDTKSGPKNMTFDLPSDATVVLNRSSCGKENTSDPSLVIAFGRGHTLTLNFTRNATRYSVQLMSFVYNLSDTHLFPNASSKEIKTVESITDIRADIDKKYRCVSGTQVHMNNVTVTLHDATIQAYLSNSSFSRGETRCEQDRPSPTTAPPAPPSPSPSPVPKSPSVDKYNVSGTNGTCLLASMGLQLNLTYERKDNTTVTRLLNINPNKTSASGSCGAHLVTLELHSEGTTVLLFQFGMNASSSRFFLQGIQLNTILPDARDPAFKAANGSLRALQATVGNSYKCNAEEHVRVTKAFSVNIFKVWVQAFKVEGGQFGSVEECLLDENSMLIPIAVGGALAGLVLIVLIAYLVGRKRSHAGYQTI
The description is as above.

In experiment [5] the target is endogenous Rheb (human (endogenous in MDA-MB-231)) (UniProt Q15382). The experiment is described as above.
Experiment [6] concerns the target endogenous Rictor (human (endogenous in MDA-MB-231)) (UniProt Q6R327). Described as above.
For experiment [7], the target named is T4, endogenous TSC1 (human (endogenous in MDA-MB-231 and HEK-293T)) (UniProt Q92574).
T4 sequence: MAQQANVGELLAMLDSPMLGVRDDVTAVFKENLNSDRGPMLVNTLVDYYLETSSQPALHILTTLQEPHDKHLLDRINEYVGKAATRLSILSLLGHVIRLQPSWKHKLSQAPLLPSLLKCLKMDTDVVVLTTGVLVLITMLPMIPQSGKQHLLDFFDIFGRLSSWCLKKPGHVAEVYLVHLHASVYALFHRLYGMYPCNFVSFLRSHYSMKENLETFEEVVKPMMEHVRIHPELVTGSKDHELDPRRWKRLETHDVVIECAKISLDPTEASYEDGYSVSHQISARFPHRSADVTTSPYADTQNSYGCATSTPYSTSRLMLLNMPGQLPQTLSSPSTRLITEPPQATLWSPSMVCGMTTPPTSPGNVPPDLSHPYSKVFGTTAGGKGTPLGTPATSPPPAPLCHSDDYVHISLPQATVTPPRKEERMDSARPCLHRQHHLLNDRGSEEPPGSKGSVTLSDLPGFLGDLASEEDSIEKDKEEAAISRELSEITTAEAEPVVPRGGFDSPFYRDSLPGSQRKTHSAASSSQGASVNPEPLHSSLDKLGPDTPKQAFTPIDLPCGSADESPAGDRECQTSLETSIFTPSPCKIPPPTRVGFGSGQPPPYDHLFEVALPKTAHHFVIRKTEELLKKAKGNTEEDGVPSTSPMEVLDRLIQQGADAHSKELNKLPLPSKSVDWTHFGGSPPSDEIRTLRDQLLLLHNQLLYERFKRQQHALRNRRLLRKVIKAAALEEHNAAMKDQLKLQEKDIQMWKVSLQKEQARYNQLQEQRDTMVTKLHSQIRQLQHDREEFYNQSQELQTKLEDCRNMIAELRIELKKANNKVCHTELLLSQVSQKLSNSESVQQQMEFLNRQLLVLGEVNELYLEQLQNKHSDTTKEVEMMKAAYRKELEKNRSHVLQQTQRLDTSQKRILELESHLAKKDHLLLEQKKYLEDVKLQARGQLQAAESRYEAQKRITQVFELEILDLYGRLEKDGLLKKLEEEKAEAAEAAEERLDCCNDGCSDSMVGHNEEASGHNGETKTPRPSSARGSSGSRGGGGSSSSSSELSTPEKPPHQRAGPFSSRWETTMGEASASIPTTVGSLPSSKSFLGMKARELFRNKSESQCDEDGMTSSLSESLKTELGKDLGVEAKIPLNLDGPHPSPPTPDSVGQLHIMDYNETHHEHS
The experiment is described as above.

In experiment [8] the target is endogenous TSC2 (human (endogenous in MDA-MB-231 and HEK-293T)) (UniProt P49815). The experiment is described as above.
For a further experiment, the target named is Recombinant GST-Cdc42 (UniProt P60953). As to the kind of experiment: pull-down; GST fusion on glutathione beads loaded with GTPγS (10 mM EDTA + 100 μM GTPγS, then 50 mM MgCl2), added to pre-cleared HEK-293T lysate (1% Triton X-100), 4 °C for 2 h; blot for endogenous Dock7; only the target purified.
Another experiment deals with Recombinant GST-Rheb (UniProt Q15382). Described as above.
Experiment [9] has as its target T2, V5-tagged DHR2 limit domain of Dock7 (human (cDNA from HeLa cells)). As to the kind of experiment: co-IP; HEK-293T lysates (50 mM Hepes pH 8.0, 150 mM NaCl, 0.3% CHAPS); anti-Myc, HA, Flag or V5 antibody 2 h, then BSA-coated Protein G beads 1 h at 4°C; Western blot. The source holds these as a separate data set. On the technique in general: In western blotting, separated proteins are transferred to a membrane and probed.

In the case of “Dock7-DDM-V5 (dimerization-defective mutant of full-length Dock7) (from UniProt Q96N67-4 1-2098)”, in experiment [1], the binding result is “binds”.
As to “V5-tagged full-length WT Dock7 (from UniProt Q96N67-4 1-2098)”, in [1], the binding result is on record as “binds”.
For “endogenous Dock7 (from UniProt Q96N67-4 1-2098)”, the binding result is “binds” in the experiment with Flag-tagged TSC2; “binds” with Myc-tagged TSC1; “binds” in experiment [2]; “binds” in experiment [3]; “no binding” in experiment [4]; “binds” in experiment [5]. For the same molecule, the binding result (in experiment [6]; in [7]; in [8]; in the experiment with Recombinant GST-Cdc42; in the experiment with Recombinant GST-Rheb) was “binds” throughout.

B1: V5-tagged DHR2 limit domain of Dock7 (domain or fragment, UniProt Q96N67-4 1540-2098)
chain: MRQNFEIGNNFARVKMQVTMSLSSLVGTSQNFNEEFLRRSLKTILTYAEEDLELRETTFPDQVQDLVFNLHMILSDTVKMKEHQEDPEMLIDLMYRIAKGYQTSPDLRLTWLQNMAGKHSERSNHAEAAQCLVHSAALVAEYLSMLEDRKYLPVGCVTFQNISSNVLEESAVSDDVVSPDEEGICSGKYFTESGLVGLLEQAAASFSMAGMYEAVNEVYKVLIPIHEANRDAKKLSTIHGKLQEAFSKIVHQDGKRMFGTYFRVGFYGTKFGDLDEQEFVYKEPAITKLAEISHRLEGFYGERFGEDVVEVIKDSNPVDKCKLDPNKAYIQITYVEPYFDTYEMKDRITYFDKNYNLRRFMYCTPFTLDGRAHGELHEQFKRKTILTTSHAFPYIKTRVNVTHKEEIILTPIEVAIEDMQKKTQELAFATHQDPADPKMLQMVLQGSVGTTVNQGPLEVAQVFLSEIPSDPKLFRHHNKLRLCFKDFTKRCEDALRKNKSLIGPDQKEYQRELERNYHRLKEALQPLINRKIPQLYKAVLPVTCHRDSFSRMSLRKMDL
On to B1, for which, in experiment [9], the binding entry is reported as “binds”.
